# Source: the supplement of paper PMC4166925
# ± gives the standard deviation of the averaged measurements. The full ranking holds about 33,000 sequences; the median of “E-score (dimensionless, -0.5 to 0.5)” is about -0.046, and the highest 2% start at about 0.36. This is one part of the list.
# System: T1, SpTbr T-box DNA-binding domain (GST fusion)
# T1 sequence: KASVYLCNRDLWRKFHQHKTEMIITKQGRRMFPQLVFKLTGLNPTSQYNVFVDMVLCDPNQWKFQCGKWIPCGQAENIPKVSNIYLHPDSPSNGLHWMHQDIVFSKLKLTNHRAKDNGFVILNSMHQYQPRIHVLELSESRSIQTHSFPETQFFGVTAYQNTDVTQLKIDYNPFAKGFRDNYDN
# Assay: PBM E-score of 8-mer (E-score (dimensionless, -0.5 to 0.5)); Tbr is Tbrain of the sea star Patiria miniata (Pm) or the sea urchin Strongylocentrotus purpuratus (Sp); higher = stronger binding preference; most listed sequences are background and not binding sites
# Details: the construct has about 5 more residues each side
# Outline: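 Using the Universal PBM Analysis Suite, every ungapped 8-mer received an enrichment E-score averaged over duplicate arrays. Probe intensities came from double-stranded Universal Agilent oligonucleotide arrays incubated with 200 nM GST-fused Tbr T-box DNA-binding domain in PBS (pH 7.5). That protein was expressed in BL21 E. coli at 20 °C and purified by glutathione affinity chromatography.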
row,Sequence,PBM E-score of 8-mer
1,GTATAATA,-0.213 ± 0.015
2,ATTGATTA,-0.064 ± 0.063
3,ACGTCGCC,-0.0779 ± 0.04
4,ACCGGGGG,-0.234 ± 0.024
5,GTCCTAAA,-0.184 ± 0.013
6,TACAGGCA,0.0297 ± 0.032
7,GTGTACAC,0.242 ± 0.0066
8,AGGGCATA,-0.16 ± 0.053
9,CGTGTTAC,0.308 ± 0.0063
10,GACGTAGA,0.0341 ± 0.018
11,CAATGTAG,-0.0397 ± 0.05
12,AGGTCACC,-0.0256 ± 0.013
13,AGCCAGAG,-0.161 ± 0.047
14,AGATCATG,-0.227 ± 0.0063
15,ACGCCGGG,-0.0203 ± 0.0055
16,ACCCAGCT,-0.0857 ± 0.026
17,CCTGTCTC,0.0231 ± 0.012
18,AAGTGCAC,-0.0937 ± 0.032
19,AATAATAC,-0.0651 ± 0.0048
20,ACACGCTA,0.0841 ± 0.042
21,GCGACTTA,0.154 ± 0.032
22,AGTCATGA,-0.109 ± 0.058

row,Sequence,PBM E-score of 8-mer
1,CTCCGTAC,-0.139 ± 0.029
2,CGATAAAG,0.143 ± 0.079
3,ACAGGTAC,0.00426 ± 0.058
4,TATCAGGA,-0.0449 ± 0.058
5,CAAACATC,0.176 ± 0.051
6,AAATAGTT,-0.0928 ± 0.01
7,AACGCGCC,0.1509 ± 0.0013
8,GCGGACGC,0.0321 ± 0.12
9,CCCATTGC,-0.103 ± 0.035
10,CTCGACTC,0.0204 ± 0.0078
11,GAAATTCC,-0.176 ± 0.0039
12,ATGGTAAG,-0.0113 ± 0.029
13,ACCTACAA,0.0136 ± 0.0088
14,CACCCTAA,0.1804 ± 0.0016
15,GCGCTCAA,0.0989 ± 0.038
16,GGATGGAC,-0.203 ± 0.0084
17,CATTCTGA,-0.204 ± 0.019
18,ACAGTTCA,0.173 ± 0.014
19,ATCACTGC,0.0129 ± 0.11
20,CGCCTCCA,0.167 ± 0.03
21,GAACGATC,0.0814 ± 0.028
22,TCACTGGA,-0.00987 ± 0.067

row,Sequence,PBM E-score of 8-mer
1,CTACCCGC,-0.0691 ± 0.055
2,CCTCCCGA,-0.0234 ± 0.02
3,GTCTGTAA,-0.144 ± 0.057
4,AGTTAAAC,-0.1689 ± 0.00067
5,AACCATGC,0.0276 ± 0.05
6,ACGGCCAG,0.0753 ± 0.013
7,AAAGTCAA,-0.103 ± 0.025
8,GGCCCAAC,-0.285 ± 0.001
9,GCTCTGAC,-0.176 ± 0.068
10,ACCACATG,-0.0493 ± 0.04
11,CCGGAACA,-0.106 ± 0.066
12,TAAATGAA,-0.182 ± 0.0097
13,ACTTAGGC,-0.0887 ± 0.014
14,ACCCCGTC,0.077 ± 0.024
15,CTGCCAAC,0.0901 ± 0.035
16,GATCACAC,0.479 ± 0.01
17,AGGGTTTC,-0.0336 ± 0.067
18,GCTGTCAC,0.326 ± 0.025
19,CGGTTCCA,-0.0579 ± 0.021
20,CACTCTAG,0.245 ± 0.013
21,CCCGGAGG,-0.191 ± 0.009
22,AGAACGGG,-0.0463 ± 0.052

row,Sequence,PBM E-score of 8-mer
1,CTGAAAAA,-0.104 ± 0.011
2,CCTTATTC,-0.177 ± 0.019
3,ACAACGTA,0.02 ± 0.0086
4,ACACCGCC,0.231 ± 0.084
5,AAATCAAT,0.0618 ± 0.14
6,CGGCCCCG,-0.222 ± 0.033
7,AGGGTTAC,-0.0534 ± 0.021
8,CTATCTAA,-0.0546 ± 0.0069
9,GCAGGCAA,-0.206 ± 0.0059
10,AGTCCAGG,-0.396 ± 0.039
11,CAACCGCG,0.131 ± 0.081
12,AACAAGAT,-0.0261 ± 0.082
13,CGATGCAC,-0.00911 ± 0.047
14,AGCTAGAT,-0.241 ± 0.057
15,ATAGGAGA,-0.311 ± 0.047
16,GGCCGTAA,-0.17 ± 0.077
17,CCCCTTGA,-0.112 ± 0.0033
18,TAGGTTCA,0.011 ± 0.035
19,ATCCACAC,0.357 ± 0.0097
20,TACTTCCA,-0.235 ± 0.062
21,AAGTGTCG,0.425
22,CGTCGGTC,-0.133 ± 0.094

row,Sequence,PBM E-score of 8-mer
1,ACTAATCG,-0.0161 ± 0.022
2,GAGCACGA,-0.0386 ± 0.024
3,CGCGCTAG,0.173 ± 0.0095
4,GATGATCA,0.0806 ± 0.0036
5,GCCATACA,0.0428 ± 0.016
6,ACTAGGGG,0.0152 ± 0.12
7,TGCCTACA,-0.024 ± 0.044
8,GTGGTTAA,0.036 ± 0.034
9,GCGGGGAC,-0.129 ± 0.046
10,AGGTATAA,-0.00898 ± 0.069
11,CGTCGTGC,0.0141 ± 0.056
12,AATGTAAA,0.0264 ± 0.02
13,GTTAGCTA,-0.0435 ± 0.003
14,CCGGAATA,-0.12 ± 0.087
15,GTTAAGCA,0.0224 ± 0.05
16,GCAGACAC,0.131 ± 0.042
17,ATCAAATG,0.008 ± 0.06
18,AGAATGCA,-0.122 ± 0.044
19,CGGCATGC,-0.0842 ± 0.0098
20,CACGGCGG,-0.0101 ± 0.054
21,CTATACGA,0.0571 ± 0.0064
